Data taken from PMC6975528.
These are yes or no findings as the source states them, for the method shown. Binding seen in cells or lysates may run through a third protein. Some binding calls cover weakened binding; strength is not graded here. For some of these results: Where a sequence is shown, tags or fusion partners need not be part of it.

By UniProt entry, the sequences of proteins in these tests, tags left out.
UniProt Q86WV6: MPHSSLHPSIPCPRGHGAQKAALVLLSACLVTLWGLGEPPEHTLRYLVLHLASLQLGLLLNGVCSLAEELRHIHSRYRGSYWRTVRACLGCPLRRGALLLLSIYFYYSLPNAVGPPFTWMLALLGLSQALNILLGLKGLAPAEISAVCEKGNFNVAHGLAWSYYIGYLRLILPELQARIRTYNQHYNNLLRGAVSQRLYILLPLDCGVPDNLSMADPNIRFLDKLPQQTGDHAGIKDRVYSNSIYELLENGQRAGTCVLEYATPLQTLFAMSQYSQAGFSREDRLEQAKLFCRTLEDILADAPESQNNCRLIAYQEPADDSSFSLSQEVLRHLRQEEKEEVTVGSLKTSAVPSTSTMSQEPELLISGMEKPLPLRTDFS
UniProt Q8N884: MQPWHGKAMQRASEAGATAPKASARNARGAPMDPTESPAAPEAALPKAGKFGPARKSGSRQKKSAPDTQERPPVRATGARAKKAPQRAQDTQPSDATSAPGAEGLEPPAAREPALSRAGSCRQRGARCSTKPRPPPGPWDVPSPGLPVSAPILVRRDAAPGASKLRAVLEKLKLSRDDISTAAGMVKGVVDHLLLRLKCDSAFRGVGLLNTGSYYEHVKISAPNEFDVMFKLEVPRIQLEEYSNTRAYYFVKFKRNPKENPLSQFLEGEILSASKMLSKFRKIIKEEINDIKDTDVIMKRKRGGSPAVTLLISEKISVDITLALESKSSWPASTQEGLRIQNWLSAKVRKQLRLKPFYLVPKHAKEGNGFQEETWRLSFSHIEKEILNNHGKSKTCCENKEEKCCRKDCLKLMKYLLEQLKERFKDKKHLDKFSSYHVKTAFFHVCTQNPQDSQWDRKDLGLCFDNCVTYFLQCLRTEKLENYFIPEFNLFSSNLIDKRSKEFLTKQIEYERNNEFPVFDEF

B1: ubiquitin-specific protease 44 (USP44), expressed by transient transfection in HEK293T cells (enzyme, UniProt Q9H0E7 1-712)
chain: MLAMDTCKHVGQLQLAQDHSSLNPQKWHCVDCNTTESIWACLSCSHVACGRYIEEHALKHFQESSHPVALEVNEMYVFCYLCDDYVLNDNTTGDLKLLRRTLSAIKSQNYHCTTRSGRFLRSMGTGDDSYFLHDGAQSLLQSEDQLYTALWHRRRILMGKIFRTWFEQSPIGRKKQEEPFQEKIVVKREVKKRRQELEYQVKAELESMPPRKSLRLQGLAQSTIIEIVSVQVPAQTPASPAKDKVLSTSENEISQKVSDSSVKRRPIVTPGVTGLRNLGNTCYMNSVLQVLSHLLIFRQCFLKLDLNQWLAMTASEKTRSCKHPPVTDTVVYQMNECQEKDTGFVCSRQSSLSSGLSGGASKGRKMELIQPKEPTSQYISLCHELHTLFQVMWSGKWALVSPFAMLHSVWRLIPAFRGYAQQDAQEFLCELLDKIQRELETTGTSLPALIPTSQRKLIKQVLNVVNNIFHGQLLSQVTCLACDNKSNTIEPFWDLSLEFPERYQCSGKDIASQPCLVTEMLAKFTETEALEGKIYVCDQCNSKRRRFSSKPVVLTEAQKQLMICHLPQVLRLHLKRFRWSGRNNREKIGVHVGFEEILNMEPYCCRETLKSLRPECFIYDLSAVVMHHGKGFGSGHYTAYCYNSEGGFWVHCNDSKLSMCTMDEVCKAQAYILFYTQRVTENGHSKLLPPELLLGSQHPNEDADTSSNEILS
B2: Flag-tagged USP44 (USP44-Flag) reconstituted in immortalized Usp44-/- MLF cells (enzyme, UniProt Q9H0E7 1-712)
chain: MLAMDTCKHVGQLQLAQDHSSLNPQKWHCVDCNTTESIWACLSCSHVACGRYIEEHALKHFQESSHPVALEVNEMYVFCYLCDDYVLNDNTTGDLKLLRRTLSAIKSQNYHCTTRSGRFLRSMGTGDDSYFLHDGAQSLLQSEDQLYTALWHRRRILMGKIFRTWFEQSPIGRKKQEEPFQEKIVVKREVKKRRQELEYQVKAELESMPPRKSLRLQGLAQSTIIEIVSVQVPAQTPASPAKDKVLSTSENEISQKVSDSSVKRRPIVTPGVTGLRNLGNTCYMNSVLQVLSHLLIFRQCFLKLDLNQWLAMTASEKTRSCKHPPVTDTVVYQMNECQEKDTGFVCSRQSSLSSGLSGGASKGRKMELIQPKEPTSQYISLCHELHTLFQVMWSGKWALVSPFAMLHSVWRLIPAFRGYAQQDAQEFLCELLDKIQRELETTGTSLPALIPTSQRKLIKQVLNVVNNIFHGQLLSQVTCLACDNKSNTIEPFWDLSLEFPERYQCSGKDIASQPCLVTEMLAKFTETEALEGKIYVCDQCNSKRRRFSSKPVVLTEAQKQLMICHLPQVLRLHLKRFRWSGRNNREKIGVHVGFEEILNMEPYCCRETLKSLRPECFIYDLSAVVMHHGKGFGSGHYTAYCYNSEGGFWVHCNDSKLSMCTMDEVCKAQAYILFYTQRVTENGHSKLLPPELLLGSQHPNEDADTSSNEILS

How the values were obtained:
[1] = molecular target: Mediator of IRF3 activation (MITA), expressed by transient transfection in HEK293T cells (UniProt Q86WV6); assay: co-IP; HEK293T cells transfected with the indicated plasmids (5 μg each) for 24 h; NP-40 lysis buffer (20 mM Tris-HCl pH 7.4, 150 mM NaCl, 1 mM EDTA, 1% NP-40); Protein G Sepharose, 4°C; washes with lysis buffer containing 0.5 M NaCl
[2] = molecular target: T1, interferon regulatory factor 3 (IRF3), expressed by transient transfection in HEK293T cells (UniProt Q14653); assay: as above
T1 sequence: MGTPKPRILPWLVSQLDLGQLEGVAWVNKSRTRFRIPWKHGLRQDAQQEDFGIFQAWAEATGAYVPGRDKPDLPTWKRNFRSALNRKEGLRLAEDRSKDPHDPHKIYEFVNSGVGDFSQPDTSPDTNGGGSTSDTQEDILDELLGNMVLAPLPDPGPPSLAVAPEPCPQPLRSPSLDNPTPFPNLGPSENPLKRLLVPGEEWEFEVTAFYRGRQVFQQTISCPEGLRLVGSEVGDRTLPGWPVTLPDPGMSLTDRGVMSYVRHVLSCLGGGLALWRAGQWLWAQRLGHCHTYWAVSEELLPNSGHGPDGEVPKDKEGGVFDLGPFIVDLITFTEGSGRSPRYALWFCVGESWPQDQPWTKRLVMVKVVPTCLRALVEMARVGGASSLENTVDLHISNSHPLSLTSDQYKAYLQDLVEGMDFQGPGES

[3] = molecular target: T2, TANK-binding kinase 1 (TBK1), expressed by transient transfection in HEK293T cells (UniProt Q9UHD2); assay: as above
T2 sequence: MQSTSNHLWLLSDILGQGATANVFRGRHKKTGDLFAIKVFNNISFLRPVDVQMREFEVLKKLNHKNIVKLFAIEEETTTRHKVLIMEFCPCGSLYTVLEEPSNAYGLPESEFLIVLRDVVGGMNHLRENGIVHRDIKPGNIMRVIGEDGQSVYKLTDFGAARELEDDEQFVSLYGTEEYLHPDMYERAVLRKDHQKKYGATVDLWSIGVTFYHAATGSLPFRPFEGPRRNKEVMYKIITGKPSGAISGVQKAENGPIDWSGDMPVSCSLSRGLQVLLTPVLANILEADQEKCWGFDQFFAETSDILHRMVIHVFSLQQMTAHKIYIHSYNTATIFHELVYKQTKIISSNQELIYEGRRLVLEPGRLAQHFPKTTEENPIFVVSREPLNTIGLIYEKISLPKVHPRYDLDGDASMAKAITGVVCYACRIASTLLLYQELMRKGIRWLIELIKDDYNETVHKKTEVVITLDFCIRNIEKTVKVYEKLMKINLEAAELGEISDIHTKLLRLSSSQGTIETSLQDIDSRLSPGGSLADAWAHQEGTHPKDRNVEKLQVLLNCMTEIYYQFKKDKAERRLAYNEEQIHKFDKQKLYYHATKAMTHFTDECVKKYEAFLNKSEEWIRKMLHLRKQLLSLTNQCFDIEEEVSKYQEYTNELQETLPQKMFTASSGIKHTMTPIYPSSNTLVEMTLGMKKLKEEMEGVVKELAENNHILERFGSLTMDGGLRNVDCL

[4] = molecular target: cyclic GMP-AMP synthase (cGAS), expressed by transient transfection in HEK293T cells (UniProt Q8N884); assay: as above
[5] = molecular target: T3, IKKε, expressed by transient transfection in HEK293T cells (UniProt Q14164); assay: as above
T3 sequence: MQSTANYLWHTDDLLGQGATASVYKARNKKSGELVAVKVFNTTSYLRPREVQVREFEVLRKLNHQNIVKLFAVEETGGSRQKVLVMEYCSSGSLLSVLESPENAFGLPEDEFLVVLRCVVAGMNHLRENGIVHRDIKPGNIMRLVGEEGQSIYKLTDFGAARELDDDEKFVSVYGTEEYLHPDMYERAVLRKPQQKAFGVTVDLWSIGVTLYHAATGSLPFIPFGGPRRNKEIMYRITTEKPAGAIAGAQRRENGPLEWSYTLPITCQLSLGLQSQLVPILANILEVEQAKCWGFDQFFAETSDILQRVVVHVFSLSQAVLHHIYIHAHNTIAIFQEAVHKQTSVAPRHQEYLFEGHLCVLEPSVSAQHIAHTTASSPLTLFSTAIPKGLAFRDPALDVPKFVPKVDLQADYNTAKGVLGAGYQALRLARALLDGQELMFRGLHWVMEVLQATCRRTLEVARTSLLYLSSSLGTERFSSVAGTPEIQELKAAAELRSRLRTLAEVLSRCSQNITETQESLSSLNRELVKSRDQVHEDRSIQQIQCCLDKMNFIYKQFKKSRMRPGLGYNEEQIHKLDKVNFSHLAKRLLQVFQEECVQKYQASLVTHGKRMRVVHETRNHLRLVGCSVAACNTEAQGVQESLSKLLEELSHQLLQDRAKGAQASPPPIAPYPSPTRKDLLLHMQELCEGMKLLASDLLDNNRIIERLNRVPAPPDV

[6] = molecular target: T4, endogenous MITA of immortalized mouse lung fibroblasts (mouse (endogenous in iMLFs)) (UniProt Q3TBT3); assay: co-IP; Usp44-/- iMLFs reconstituted with USP44-Flag, infected with HSV-1 (MOI = 1) for the indicated times in the presence of MG132 (10 μM); immunoprecipitation with anti-MITA, immunoblot
T4 sequence: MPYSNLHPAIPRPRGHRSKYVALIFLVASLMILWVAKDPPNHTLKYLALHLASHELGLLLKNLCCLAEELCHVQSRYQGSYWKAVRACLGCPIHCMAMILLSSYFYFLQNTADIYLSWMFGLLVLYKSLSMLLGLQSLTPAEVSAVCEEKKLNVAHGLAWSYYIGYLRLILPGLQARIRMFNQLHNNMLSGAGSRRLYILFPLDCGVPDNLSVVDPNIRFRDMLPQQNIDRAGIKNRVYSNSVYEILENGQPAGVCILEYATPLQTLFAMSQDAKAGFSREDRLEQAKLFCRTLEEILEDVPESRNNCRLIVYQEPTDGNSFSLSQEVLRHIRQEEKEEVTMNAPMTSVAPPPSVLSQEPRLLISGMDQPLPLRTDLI

[7] = molecular target: T4, endogenous MITA of immortalized mouse lung fibroblasts (mouse (endogenous in iMLFs)); assay: co-IP; membraneous fraction (20000 g pellet) of Usp44-/- iMLFs reconstituted with USP44-Flag, infected with HSV-1 (MOI = 1) for the indicated times; co-immunoprecipitation and immunoblot

Binder	binding [1]	binding [2]	binding [3]	binding [4]	binding [5]	binding [6]	binding [7]
B1	binds	no binding	no binding	no binding	no binding		
B2						binds	binds
